This is an account of results in PubChem BioAssay AID463173 (ICCB-Longwood Screening Facility, Harvard Medical School, 2010).

The whole screen tested about 52,000 compounds, of which about 1,700 (3.3%) were called active. Rule as the data show it: active = survival mostly below about 52% (no sharp cut-off); inactive = mostly above about 56%. Some of the results follow.

For the assay, the system named is Wild type. As to the kind of experiment: growth inhibition of S. aureus wild type versus tarO mutant, primary screen, teichoic acid synthesis inhibitors, RN4220, OD600 (AID 463173). To be noted: S. aureus RN4220 wild type/DeltatarO growth, OD600, 18 h, hits give low values, screened at 18.75 µg/mL (by protocol).
As to `CNc1nc2c(c(=O)[nH]c(=O)n2C)n1Cc1cccc2ccccc12`, the survival is inactive: 106%.
Consider `COc1cccc(-c2nnc(SCC(=O)N(C)c3ccccc3)o2)c1`, for which the survival was inactive: 85%.
As for `CC(=O)Nc1cc(C(=O)NCc2ccc(F)cc2)ccc1S(=O)(=O)c1ccc(C)cc1`, the survival was inactive: 71%.
Next, `COc1ccc(NC(=O)c2cn3ccc(C)cc3n2)cc1`: inactive: 99%; `CC1CC2(C)CC(C)C1(COC(=O)Nc1ccccc1)CO2` (centres undefined): inactive: 118%; `Cc1ccc2c(=O)cc(C(=O)Nc3ccc(S(=O)(=O)N4CCCCC4C)cc3)oc2c1C` (centres undefined): inactive: 88%.
Regarding `CCN(CC)CCCNC(=O)Cn1ncc2c3ccccc3n(Cc3ccccc3)c2c1=O`, the survival is inactive: 92%.
Next, `CCN(CC)c1ccc(NS(=O)(=O)c2cc(-c3onc(C)c3C)ccc2OC)c(C)c1`: inactive: 77%; `Cc1cc(C)nc(/N=C2\NC(=O)CC3C(=O)NCCN23)n1` (centres undefined): inactive: 107%.
For `CC(=O)c1ccc(NC(=O)C(C)n2nc(-c3ccccc3)ccc2=O)cc1` (centres undefined) the value was inactive: 61%; for `CCOC(=O)c1ccc(NC(=O)CC2C(=O)N(c3cccc(OC)c3)C(=O)N2Cc2cccnc2)cc1` (centres undefined), inactive: 101%.
`CCn1c2ccccc2c2cc(CN3CCN(Cc4ccc(Cl)cc4)CC3)ccc21`: the survival is active: -2%.
Regarding `Cc1cc(C)n(C(C)CC(=O)Nc2cccc(C#N)c2)n1` (centres undefined), the survival is inactive: 71%.
Consider `CCc1nc(Nc2ccc(F)c(Cl)c2)c2c3c(sc2n1)CCCC3`, for which the survival was active: -1%.
Turning to `O=C(Cn1ncc2c3ccccc3n(Cc3cccc(Cl)c3)c2c1=O)NCCCc1ccccc1`, the survival was inactive: 84%.
For `COc1ccc(-c2c(C)nn3c(-c4ccccc4)cc(C)nc23)cc1OC` the value was inactive: 59%; for `Cc1cccc(C)c1NC(=O)Cn1cc(C(=O)c2ccco2)c2ccccc21`, inactive: 70%.
With `Cc1ccnc(N2CCC(C(=O)NCc3ccc(F)cc3)CC2)n1`, the survival is inactive: 105%.
Next, `Cc1cc(O)c(C(c2ccccc2)N2CCN(c3ccccc3)CC2)c(=O)n1Cc1ccco1` (centres undefined): inactive: 78%.
For `O=C(NC1CC2CCCC(C1)N2C(=O)Nc1ccccc1)C1CC1` (centres undefined) the value was inactive: 98%; for `CCOc1ccc(-c2nn(-c3ccc(F)cc3)c3c2cnc2ccc(F)cc23)cc1`, inactive: 86%; for `Cc1ccc2oc(-c3ccc(Cl)cc3)c(O)c(=O)c2c1`, inactive: 71%.
In the case of `Cc1cc(C)cc(NC(=O)c2ccc3oc(=O)c(S(=O)(=O)c4ccc(F)cc4)cc3c2)c1`, the survival is inactive: 94%.
With `COc1ccc(N2CCN(C(=O)C3CCN(S(=O)(=O)c4cccc5nonc45)CC3)CC2)cc1`, the survival was inactive: 111%.
On to `CCN1CCN(CCCNC(=O)CS(=O)(=O)Cc2nc(-c3ccccc3C)oc2C)CC1`, for which the survival is inactive: 81%.
In the case of `COc1cccc2sc(NC(=O)c3ccc(S(=O)(=O)N4CCC(C)CC4)cc3)nc12`, the survival is inactive: 69%.
As to `CCOC(=O)c1noc2ncnc(Nc3cc(Cl)c(OC)cc3OC)c12`, the survival was inactive: 71%.
For `COc1ccc(NC(=O)Cn2c(=O)c3cccn3c3ccccc32)cc1Cl`, the survival is inactive: 83%.
Next, `COc1ccc(-c2nc3sc(CCNC(=O)Cc4ccc(F)cc4)c(C)n3n2)cc1`: inactive: 78%; `Cc1sc(-c2cc3ccccc3oc2=O)nc1-c1ccc(Cl)c(Cl)c1`: inactive: 82%; `COc1ccc(C)cc1NC(=O)Nc1cc(C(=O)NCc2ccc(C)cc2)ccc1N1CCCC1`: inactive: 85%.
Take `CCOc1ccccc1OCCCCn1c(-c2ccc(Cl)cc2)nc2ccccc2c1=O`: the survival was inactive: 45%.
In the case of `CCOc1ccc(CNCc2c(C(=O)O)c(C)n(Cc3ccc(C)cc3)c2C)cc1`, the survival was inactive: 104%.
As to `Cc1nnc(N2CCCC(C(=O)NCCN(C)C)C2)c2nn(-c3ccccc3)c(C)c12` (centres undefined), the survival was inactive: 69%.
Turning to `CCc1ccccc1Nc1ccc(C(=O)O)cn1`, the survival was inactive: 113%.
Consider `O=S(=O)(Nc1ccc(-c2ccc(N3CCCC3)nn2)cc1)c1ccc(C(F)(F)F)cc1`, for which the survival is inactive: 64%.
In the case of `CCC(Sc1nc(-c2ccccc2)[nH]c1S(=O)(=O)c1ccc(C)cc1)C(=O)O` (centres undefined), the survival was inactive: 84%.
In the case of `Cc1ccc(-n2ncc3c(N(C)C)ncnc32)cc1Cl`, the survival was inactive: 87%.
For the compound `Cc1cccc(-c2nc(CCNC(=O)c3ccc(Br)o3)cs2)c1`, the survival was inactive: 69%.
`Cc1cc(C)cc(OC(=O)c2cc(-c3ccc(Cl)cc3)on2)c1`: the survival was inactive: 87%.
With `Cc1cc(=O)n(Cc2ccc(F)cc2Cl)c2c1c(C)nn2C`, the survival was inactive: 47%.
For `CC(C)c1ccc(-c2noc(SCC(=O)N3CCCCC3C)n2)cc1` (centres undefined), the survival is inactive: 82%.
As to `O=C(NCCCN1CCN(c2ccc(F)cc2)CC1)c1cc2c(Cl)nc3ccccc3c2s1`, the survival is inactive: 82%.
As for `CCN(CC)C(=O)Cn1c(=O)n(-c2ccc(C)c(C)c2)c(=O)c2c(C)c(C(=O)N(CC)CC)sc21`, the survival was inactive: 87%.
Turning to `CC(=O)c1sc(NC(=O)c2c(-c3ccccc3)c(-c3ccccc3)nn(C)c2=O)nc1C`, the survival is inactive: 54%.
With `CCN1CCN(C(=O)c2cnn(-c3ccc(F)cc3F)c2C2CCN(C(=O)OC(C)(C)C)CC2)CC1`, the survival is inactive: 82%.
Consider `CCOc1ccc(NC(=O)c2c(NCc3cccnc3)sc3c2CCC(C)C3)cc1` (centres undefined), for which the survival was inactive: 140%.
`CC1CCc2onc(C(=O)N3CCN(c4ccc(F)cc4)CC3)c2C1` (centres undefined): the survival is inactive: 88%.
As for `CCCCCN1C(C(=O)c2ccccc2)=C(NC(=O)c2ccc(C)cc2)c2ccccc2S1(=O)=O`, the survival is inactive: 77%.
Next, `CC1CCC(N2CC(=O)N(CCC3=CCCCC3)C(c3ccc(F)cc3)C2=O)CC1` (centres undefined): inactive: 84%; `COc1ccc(OC)c(NC(=O)c2cnc(Nc3ccc(C)c(Cl)c3)c3ccccc23)c1`: inactive: 72%; `Cn1c(CO)nc2cc(N)ccc21`: inactive: 110%.
For `COc1cc(Cl)c(NC(=O)CCc2nc3cccnc3n2-c2ccccc2)c(OC)c1` the value was inactive: 82%; for `CC(=O)Nc1c(C)nn(-c2ccccc2)c1N1CCC(C(=O)NCc2cccc(Cl)c2)CC1`, inactive: 71%; for `Cc1ccc(NC(=O)c2cnc(SCC(=O)N3CCCc4ccccc43)n(C)c2=O)cc1`, inactive: 71%.
On to `CC(C)(C)OC(=O)N1CCC(c2c(C(=O)N3CCN(c4ccccc4F)CC3)cnn2-c2ccccc2Cl)CC1`, for which the survival is inactive: 70%.
For `O=C(NCCc1nc2ccccc2n1Cc1c(F)cccc1Cl)c1ccco1`, the survival is inactive: 95%.
`O=C(CSc1nc2cc3ccccc3cc2[nH]1)Nc1ccc(F)cc1`: the survival was inactive: 76%.
For `CC1=C(C(=O)Nc2ccc(Cl)cc2)C(c2cccs2)n2nc(SCc3cccc(C)c3)nc2N1` (centres undefined), the survival is inactive: 103%.
For `Cc1ccc2cc(C(c3nnnn3C3CCCC3)N3CCCc4ccccc43)c(=O)[nH]c2c1` (centres undefined), the survival was inactive: 108%.
For the compound `CCOc1ccc(NC(=O)CCNS(=O)(=O)c2ccc3c(c2)CCCC(=O)N3)cc1`, the survival was inactive: 87%.
With `CC(=O)NC1Sc2ccccc2N=C1c1ccccc1` (centres undefined), the survival is inactive: 112%.
With `Cc1ccc(C(=O)Nc2nnc(S(=O)(=O)N3CCCCCC3)s2)cc1`, the survival was inactive: 79%.
For `COc1ccc(CNC(=O)CCc2c(C)c3cc4c(C)c(C)oc4cc3oc2=O)cc1` the value was inactive: 108%; for `CC(=O)Nc1ccc(-c2nnc3n(Cc4ccc(C)cc4)c(=O)c4ccccc4n23)cc1`, inactive: 109%.
Take `O=c1c(NCc2ccccc2Cl)nccn1-c1ccccc1`: the survival is active: -1%.
Take `CCOC(=O)CCC(=O)Nc1nnc2n1CCS2`: the survival was inactive: 65%.
Consider `CC(=O)N1CCc2cc(S(=O)(=O)NC(CC(C)C)C(=O)NCc3ccccc3Cl)ccc21` (centres undefined), for which the survival is inactive: 73%.
As for `Cc1c(NC(=O)c2cc(-c3ccccc3O)on2)c(=O)n(-c2ccccc2)n1C`, the survival was inactive: 76%.
As to `CCCCCOc1ccc(Cn2c(=O)oc3ccc(C)cc32)cc1OC`, the survival is active: -6%.
With `CCC(=O)N1CCc2cc(Br)cc(S(=O)(=O)N3CCC(C(=O)Nc4ccccc4F)CC3)c21`, the survival is inactive: 80%.
With `CCC(C)Nc1nc(NC)nc(NC(C)CC)n1` (centres undefined), the survival is inactive: 114%.
Consider `CCCCS(=O)(=O)c1oc(-c2cccs2)nc1S(=O)(=O)c1ccc(F)cc1`, for which the survival was inactive: 82%.
Take `O=C1CC(c2cc(F)cc(F)c2)c2cc3c(cc2N1)OCO3` (centres undefined): the survival was inactive: 84%.
With `Cc1c(C(=O)N2CCN(c3ccc(F)cc3)CC2)sc2nc3n(c(=O)c12)CCC3`, the survival was inactive: 89%.
Next, `Cc1cc(C)cc(C(=O)n2nc(C)c(S(=O)(=O)N3CCCCCC3)c2C)c1`: inactive: 117%.
`O=C(Nc1ccc(Cl)cc1Cl)c1cc(S(=O)(=O)N2CCCCCC2)ccc1F`: the survival is inactive: 67%.
Next, `CC(C)(C)OC(=O)N1CC=C2C(C#N)=C(N)C(C#N)(C#N)C(c3ccc4c(c3)OCO4)C2C1` (centres undefined): inactive: 107%; `CCCCc1nn2c(=O)cc(COC(=O)c3ccccc3NC(=O)c3cccs3)nc2s1`: inactive: 112%.
Consider `CN(C)c1nc(Cl)nc(NCCCC(=O)O)n1`, for which the survival is inactive: 109%.
As for `CCCOc1ccc(NC(=O)CC2C(=O)N(c3ccc(C)cc3)C(=O)N2CCc2ccncc2)cc1` (centres undefined), the survival was inactive: 73%.
Consider `CCN(C(=O)CSc1nnc(Cn2nnc3ccccc32)o1)c1nc(-c2ccccc2)cs1`, for which the survival was inactive: 114%.
In the case of `O=C(Cn1ccn(-c2ccc(F)cc2)c(=O)c1=O)Nc1ccccc1C(F)(F)F`, the survival is inactive: 82%.
As to `Cc1oc(-c2ccc(C(=O)NCCN(C)C)cc2)nc1CS(=O)(=O)c1ccccc1`, the survival is inactive: 72%.
In the case of `O=C(Cn1nc(-c2ccccc2)nc(Cc2ccccc2)c1=O)Nc1ccc(Cl)cc1`, the survival is inactive: 69%.
Next, `Cc1cccc(NC(=O)Cn2nnc(C(=O)NCc3ccco3)c2N)c1`: inactive: 125%.
Next, `CC(C)Cn1c(C2CC(=O)N(c3ccccc3Cl)C2)nc2ccccc21` (centres undefined): inactive: 97%; `Cc1cccc(-n2c(N)cc(=O)nc2SCC(=O)Nc2ccc(F)cc2)c1C`: inactive: 86%; `COc1ccc(Br)cc1C(=O)Nc1ccc(-c2nc3ncccc3o2)cc1C`: inactive: 72%.
